Reference: the supplement of paper PMC10502849
The list shows a part of the results. Repeats are few or missing, and single values can be far off.

Tests used:
[1] = test system: H9 teratoma-derived LAM model cells, TSC2-/-; assay: percent SyTOX+ dead cells; higher = more cytotoxic; conditions: 5 µM, treatment time 72 h, culture: 3D hyaluronic acid hydrogel
[2] = test system: H9 teratoma-derived LAM model cells, WT; assay: percent SyTOX+ dead cells; higher = more cytotoxic; conditions: 5 µM, treatment time 72 h, culture: 3D hyaluronic acid hydrogel, genotype: WT
[3] = test system: H9 teratoma-derived LAM model cells, TSC2-/-; assay: percent of cells invaded past median invasion distance of vehicle control; LAM is lymphangioleiomyomatosis; the cells come from teratomas of the human stem cell line H9; higher = more invasion; extreme values may be limits of the assay; conditions: 5 µM, treatment time 72 h, culture: 3D hyaluronic acid hydrogel
[4] = test system: H9 teratoma-derived LAM model cells, WT; assay: as above; conditions: 5 µM, treatment time 72 h, culture: 3D hyaluronic acid hydrogel, genotype: WT
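Throughout, for percent SyTOX+ dead cells: cells seeded atop a hyaluronic acid gel crosslinked via MMP-cleavable peptides, containing vitronectin peptides and methylcellulose, imaged live by high-content microscopy with automated analysis, one technical replicate per compound.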
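Throughout, for percent of cells invaded past median invasion distance of vehicle control: live cells imaged by high content microscopy and scored with in-house automated image analysis, one technical replicate per compound in each genotype and rapamycin condition.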

SMILES | percent SyTOX+ dead cells ([1]; rapamycin 0 nM) [%] | percent SyTOX+ dead cells ([1]; rapamycin 20 nM) [%] | percent SyTOX+ dead cells ([2]; rapamycin 0 nM) [%] | percent SyTOX+ dead cells ([2]; rapamycin 20 nM) [%] | percent ([3]; rapamycin 0 nM) [%] | percent ([3]; rapamycin 20 nM) [%] | percent ([4]; rapamycin 0 nM) [%] | percent ([4]; rapamycin 20 nM) [%]
COc1cc2nccc(Oc3ccc(NC(=O)Nc4ccc(F)cc4F)c(F)c3)c2cc1OC | 14.1 | 23.1 | 40.9 | 36.1 | 16 | 15.7 | 3.89 | 3.48
O=c1ncn2nc(Sc3ccc(F)cc3F)ccc2c1-c1c(Cl)cccc1Cl | 2.2 | 0 | 5.66 | 3.79 | 85.2 | 67.7 | 80.5 | 55
COc1ccc(-c2ccc3ncc4c(c3c2)n(-c2ccc(N3CCNCC3)c(C(F)(F)F)c2)c(=O)n4C)cn1 | 52.4 | 52.1 | 63.6 | 54.7 | 0 | 16.7 | 0 | 0
O=C(CCCCCN1C(=O)c2cccc3cccc(c23)C1=O)NO | 10.9 | 10.3 | 14.7 | 16.7 | 64.6 | 56.4 | 54.9 | 42.3
Cc1cc([N+](=O)[O-])ccc1NS(=O)(=O)c1cc(Cl)ccc1Cl | 19.1 | 12.7 | 12.2 | 10.1 | 64.1 | 48.5 | 42.1 | 44.4
Cc1cc(Nc2cc(CN3CCOCC3)c3nc(C)c(Cc4ccc(Cl)cc4F)n3n2)n[nH]1 | 57.5 | 47.7 | 69.8 | 82.5 | 0 | 3.18 | 0.49 | 0
Nc1cc(C(F)(F)F)c(-c2cc(N3CCOCC3)nc(N3CCOCC3)n2)cn1 | 29.6 | 23.6 | 44.4 | 40.4 | 0.93 | 45.1 | 5.33 | 14
CC1(C)CCC(CN2CCN(c3ccc(C(=O)NS(=O)(=O)c4ccc(NCC5CCOCC5)c([N+](=O)[O-])c4)c(Oc4cnc5[nH]ccc5c4)c3)CC2)=C(c2ccc(Cl)cc2)C1 | 8.72 | 11.6 | 9.63 | 8.91 | 46.3 | 32.3 | 37.7 | 43.6
Cc1cc(Nc2nc(N[C@@H](C)c3ncc(F)cn3)ncc2Cl)[nH]n1 | 59.3 | 46.8 | 78.1 | 79.4 | 17.6 | 22.1 | 0 | 0
C/C(=N\N=C(N)N)c1ccc(NC(=O)Nc2ccc(/C(C)=N/N=C(N)N)cc2)cc1 | 6.57 | 21.7 | 11.2 | 12.6 | 20.9 | 8.24 | 38.4 | 16.1
O=Nc1c(-c2c(O)[nH]c3cc(Br)ccc23)[nH]c2ccccc12 [6-bromoindirubin-3'-oxime, BIO] | 72.1 | 83.8 | 86 | 93.8 | 0 | 2.6 | 0 | 0
Nc1cc(F)ccc1NC(=O)c1ccc(CNC(=O)/C=C/c2cccnc2)cc1 | 12.3 | 15.5 | 16.4 | 15.1 | 54.3 | 37.6 | 56.3 | 59
CC1(O)CC(c2nc(-c3ccc4ccc(-c5ccccc5)nc4c3)c3c(N)nccn23)C1 (stereo not given) [OSI-906, Linsitinib] | 6.99 | 11.1 | 12.4 | 21.2 | 65.9 | 80.8 | 67.9 | 67.7
Nc1ncnc2c1ncn2[C@@H]1O[C@H](CSCC[C@H](N)C(=O)O)[C@@H](O)[C@H]1O [S-Adenosylhomocysteine, SAH, AdoHcy] | 14.9 | 15.8 | 14 | 13.5 | 80.4 | 21.9 | 56.6 | 48.1
CC[C@@H]1C(=O)N(C)c2cnc(Nc3ccc(C(=O)NC4CCN(C)CC4)cc3OC)nc2N1C1CCCC1 | 9.25 | 7.99 | 16.9 | 7.17 | 48.7 | 71.6 | 52.8 | 49.5
Cc1cccc(-c2[nH]c(C(C)(C)C)nc2-c2ccc3c(c2)OCO3)n1 | 19.3 | 10.9 | 17.4 | 17.5 | 44.3 | 15.6 | 13.4 | 12.6
CN1CCC(CNc2ccc3ncc(-c4cccc(OC(F)(F)F)c4)n3n2)CC1 | 9.3 | 16.1 | 25.1 | 10.9 | 36.4 | 42 | 1.03 | 9.09
O=C(Nc1ccc(OC(F)(F)F)cc1)c1sccc1NCc1ccnc2ccccc12 | 6.64 | 11.3 | 36.9 | 26 | 84.8 | 56.8 | 59.6 | 7.29
O=C(c1cn(Cc2cncn2Cc2ccc(Br)cc2)cc1-c1cccc2ccccc12)N1CCOCC1 | 14.8 | 15.8 | 13.2 | 15.2 | 58.8 | 47.2 | 68.7 | 50.2
O=C(Nc1c[nH]nc1-c1nc2ccc(CN3CCOCC3)cc2[nH]1)NC1CC1 | 56.1 | 70 | 69.2 | 73.1 | 3.54 | 1.52 | 0 | 0
COc1cc2c(NC3CCN(C(C)C)CC3)nc(C3CCCCC3)nc2cc1OCCCN1CCCC1 | 13.6 | 8.98 | 13.1 | 11.5 | 86.5 | 28.1 | 47.1 | 60.4
O=C(NOCC1CC1)c1cc(Br)c(F)c(F)c1Nc1ccc(I)cc1Cl | 6.46 | 2.73 | 8.44 | 4.87 | 33.4 | 39.1 | 44.6 | 39.8
COc1cccc(-c2cc(=O)c3ccccc3o2)c1N | 5.04 | 10.2 | 12.6 | 7.89 | 43 | 19.4 | 31.2 | 19.4

SMILES | percent SyTOX+ dead cells ([1]; rapamycin 0 nM) [%] | percent SyTOX+ dead cells ([1]; rapamycin 20 nM) [%] | percent SyTOX+ dead cells ([2]; rapamycin 0 nM) [%] | percent SyTOX+ dead cells ([2]; rapamycin 20 nM) [%] | percent ([3]; rapamycin 0 nM) [%] | percent ([3]; rapamycin 20 nM) [%] | percent ([4]; rapamycin 0 nM) [%] | percent ([4]; rapamycin 20 nM) [%]
CNc1nc(-c2ccc3c(N)n[nH]c3c2)cc(N2C[C@@H](C(=O)NC3CCCCC3)CC[C@H]2C)n1 | 3.46 | 3.94 | 18.1 | 24.5 | 54.5 | 57.7 | 30.9 | 10.6
OCCC#Cc1nc(-c2ccc(F)cc2)c(-c2ccncc2)n1CCCc1ccccc1 | 10.5 | 7.77 | 10.4 | 11.4 | 22.1 | 13.4 | 21.7 | 18.5
O=c1oc2c(O)c(O)cc3c(=O)oc4c(O)c(O)cc1c4c23 [Ellagic acid] | 4.07 | 8.78 | 7.14 | 11.9 | 16.3 | 11.3 | 24.8 | 19.4
Cc1ccc(C(=O)Nc2cccc(C(F)(F)F)c2)cc1-c1ccc2nc(NCCN3CCOCC3)ncc2c1 | 61.5 | 68.4 | 85.8 | 82.4 | 0 | 3.16 | 0 | 0
Oc1cccc(-c2nc(N3CCOCC3)c3oc4ncccc4c3n2)c1 | 14.8 | 13.2 | 27.4 | 20.7 | 7.81 | 29.7 | 18.6 | 16.4
COc1ccc(OC)c2c(=S)c3ccccc3[nH]c12 | 11.2 | 15.1 | 8.1 | 9.05 | 66.8 | 66.3 | 61 | 35.8
C#CC[C@H](c1nc2cc(Cl)ccc2c(=O)n1Nc1ccccc1)N(CCCN)C(=O)c1cccc(Cl)c1F | 22.2 | 20 | 4 | 2.36 | 87.9 | 49.6 | 81.2 | 75.6
Cc1cccc(C)c1OCC(=O)N[C@@H](Cc1ccccc1)[C@@H](O)C[C@H](Cc1ccccc1)NC(=O)[C@H](C(C)C)N1CCCNC1=O [Lopinavir, ABT-378] | 15.6 | 7.71 | 4.91 | 3.68 | 66.3 | 18.8 | 56.9 | 75
O=C1Nc2ccc(I)cc2/C1=C/c1cc(Br)c(O)c(Br)c1 | 18.4 | 11.4 | 25.7 | 30 | 20.2 | 19.3 | 9.17 | 6.67
N#CCNC(=O)c1ccc(-c2ccnc(Nc3ccc(N4CCOCC4)cc3)n2)cc1 | 29.4 | 37.1 | 55.6 | 67.1 | 1.37 | 7.26 | 2.82 | 0
CN1CCN(c2ccc3nc(-c4c(N)c5c(F)cccc5[nH]c4=O)[nH]c3c2)CC1 [Dovitinib, CHIR-258, TKI-258, GFKI-258] | 39.8 | 30.6 | 62.6 | 49.8 | 12.3 | 9.09 | 3.87 | 3.2
C[S+]([O-])c1ccc(-c2nc(-c3ccc(F)cc3)c(-c3ccncc3)[nH]2)cc1 (stereo not given) | 9.09 | 7.69 | 29.5 | 8.82 | 15.2 | 24.2 | 4.46 | 10.6
C=CC(=O)Nc1cccc(Sc2nc(Nc3ccc(N4CCN(C)CC4)cc3)ncc2Cl)c1 | 49.2 | 28.3 | 56.3 | 29 | 38.9 | 13.3 | 5.26 | 3.82
Nc1nc(OCC2CCCCC2)c2[nH]cnc2n1 | 4.05 | 7.75 | 16 | 13.4 | 20.7 | 38.7 | 30.1 | 41.2
CCCOc1ccc(/C=C2/SC(=O)NC2=O)cc1 [PIM1/2 Kinase Inhibitor VI] | 17.5 | 12.9 | 19.3 | 18.4 | 44.4 | 27 | 10.2 | 7.98
N#Cc1ccc(C(c2ccc(C#N)cc2)n2cncn2)cc1 | 16 | 12.5 | 10.4 | 11.5 | 54.7 | 29.7 | 47 | 38.3
CCc1cc2c(cc1N1CCC(N3CCOCC3)CC1)C(C)(C)c1[nH]c3cc(C#N)ccc3c1C2=O | 2.51 | 4.93 | 10.1 | 5.63 | 56.3 | 34.5 | 31.4 | 11.9
CC(C)(C#N)c1cc(Cn2cncn2)cc(C(C)(C)C#N)c1 [Anastrozole; Arimidex; ZD-1033; ICI-D1033] | 12.2 | 16.7 | 8.45 | 13.3 | 59.1 | 42.9 | 59.1 | 52.4
CC(=O)O[C@H]1C(=O)[C@@]2(C)[C@H]([C@H](OC(=O)c3ccccc3)[C@]3(O)C[C@H](OC(=O)[C@H](O)[C@@H](NC(=O)c4ccccc4)c4ccccc4)C(C)=C1C3(C)C)[C@]1(OC(C)=O)CO[C@@H]1C[C@@H]2O [Paclitaxel, Taxol] | 58.7 | 39.3 | 69.2 | 47.2 | 15.1 | 4.08 | 2.2 | 5.6
CO[C@@H](C(=O)N1Cc2[nH]nc(NC(=O)c3ccc(N4CCN(C)CC4)cc3)c2C1)c1ccccc1 | 19.6 | 21.2 | 42.2 | 46.2 | 31.6 | 27.6 | 3.43 | 13.8
CO[C@H]1C[C@@H]2CC[C@@H](C)[C@@](O)(O2)C(=O)C(=O)N2CCCC[C@H]2C(=O)O[C@H]([C@H](C)C[C@@H]2CC[C@@H](OCCO)[C@H](OC)C2)CC(=O)[C@H](C)/C=C(\C)[C@@H](O)[C@@H](OC)C(=O)[C@H](C)C[C@H](C)/C=C/C=C/C=C/1C [Everolimus, RAD-001, Certican] | 5.36 | 4.5 | 10.3 | 8.38 | 40.2 | 45 | 49.6 | 52.4
C[C@@H]1CN(CC(=O)Nc2ccc3c(c2)Cc2cccc(-c4cc(=O)cc(N5CCOCC5)o4)c2S3)C[C@H](C)O1 | 8.75 | 6.09 | 15.6 | 18.3 | 71.2 | 87.4 | 53.1 | 50.7
